Experimental data reported in PMC4336329 (PLoS ONE, 2015).
In all, about 310,000 compounds went through this assay and about 14,000 (4.5%) showed an effect of 50% or more. The effect is printed as a negative number. The list shows a part of the results.

The molecules below were run against human ether-à-go-go-related gene (hERG) potassium channel (human, UniProt Q12809) (assay: primary screen, population patch clamp on CHO cells stably expressing hERG).
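Further: peak tail current of the secondary pulse compared with the same well before compound.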

Sequence of human ether-à-go-go-related gene (hERG) potassium channel (Q12809 whole entry, looked up): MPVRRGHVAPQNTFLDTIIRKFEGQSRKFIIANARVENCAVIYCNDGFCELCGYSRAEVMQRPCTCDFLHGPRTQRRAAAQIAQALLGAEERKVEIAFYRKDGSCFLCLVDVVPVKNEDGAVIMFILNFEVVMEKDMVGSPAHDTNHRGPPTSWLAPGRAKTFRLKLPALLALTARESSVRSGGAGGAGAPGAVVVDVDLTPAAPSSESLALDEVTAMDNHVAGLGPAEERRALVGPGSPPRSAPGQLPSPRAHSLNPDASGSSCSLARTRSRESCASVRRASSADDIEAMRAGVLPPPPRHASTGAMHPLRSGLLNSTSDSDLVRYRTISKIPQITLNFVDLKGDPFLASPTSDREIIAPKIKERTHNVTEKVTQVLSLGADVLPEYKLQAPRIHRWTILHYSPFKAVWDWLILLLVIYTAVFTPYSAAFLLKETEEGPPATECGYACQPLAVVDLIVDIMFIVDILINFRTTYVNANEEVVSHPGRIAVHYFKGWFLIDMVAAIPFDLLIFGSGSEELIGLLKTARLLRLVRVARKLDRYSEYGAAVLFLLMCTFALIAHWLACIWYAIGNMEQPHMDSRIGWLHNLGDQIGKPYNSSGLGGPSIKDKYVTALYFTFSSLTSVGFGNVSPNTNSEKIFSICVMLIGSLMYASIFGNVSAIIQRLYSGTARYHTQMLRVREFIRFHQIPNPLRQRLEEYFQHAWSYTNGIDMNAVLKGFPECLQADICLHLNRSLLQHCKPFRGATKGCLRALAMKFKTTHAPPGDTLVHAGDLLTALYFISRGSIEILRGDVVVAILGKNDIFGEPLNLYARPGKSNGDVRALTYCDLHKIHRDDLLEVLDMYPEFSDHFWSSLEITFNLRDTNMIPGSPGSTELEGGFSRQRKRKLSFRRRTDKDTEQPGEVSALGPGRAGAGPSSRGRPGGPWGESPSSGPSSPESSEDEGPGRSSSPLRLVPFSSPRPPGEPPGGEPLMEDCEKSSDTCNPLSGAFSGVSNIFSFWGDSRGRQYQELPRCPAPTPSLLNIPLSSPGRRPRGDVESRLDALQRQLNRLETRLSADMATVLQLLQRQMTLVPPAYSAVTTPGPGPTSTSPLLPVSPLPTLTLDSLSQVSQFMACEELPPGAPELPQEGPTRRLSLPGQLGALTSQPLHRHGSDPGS

Compound	hERG current change (%, negative = inhibition) at 10uM [%]
Cc1nnc(NC(=O)C(C)Sc2nnc(-c3ccco3)n2C)s1 (stereo not shown)	19
O=C(O)c1cccc2c1C(=O)N(C1CCCC1)C2	11.7
COc1ccccc1NS(=O)(=O)c1cc(NC(=O)c2cc(=O)[nH]c3ccccc23)ccc1N1CCOCC1	-34.7
CC(C)CCN1CCN(Cc2ccc(C#CC(C)(C)O)s2)CC1CCO (stereo not shown)	-5.82
COC(=O)C1CN(C(=O)C(C)Oc2cccc(C)c2C)c2ccccc2O1 (stereo not shown)	-8.63
COc1cccc(NC(=O)CC2C(=O)NC3CCCCC3N2C(=O)c2ccc(F)cc2)c1 (stereo not shown)	11.1
Cc1oc(-c2cccs2)nc1CN1CCN(C(C)C)C(CCO)C1 (stereo not shown)	4.95
CC(=O)c1cc2c(cc1NC(=O)Cn1cnc3ccccc3c1=O)OCO2	-6.93
CCN(CC)CCCNc1oc(/C=C/c2ccccc2)nc1C#N	-71
O=S1(=O)N=C(N2CCN(c3ccc(F)cc3)CC2)c2ccccc21	-8.87
CCC1=NN2C(=N)/C(=C\c3ccc(OCCOc4ccc(NC(C)=O)cc4)cc3)C(=O)N=C2S1	15.2
COc1ccccc1NC(=O)C1CCCN(c2ncnc3c2nc2n3CCCCC2)C1 (stereo not shown)	-45.5
CC(=O)c1cccc(Nc2ccc(-c3ccccc3F)nn2)c1	-21.6
Cc1n[nH]c(C)c1S(=O)(=O)N1CCCC(C(=O)NC2CCCc3ccccc32)C1 (stereo not shown)	-0.218
O=C(c1ccccc1)n1ccc2ccccc21	-28
O=C1c2ccccc2CN1CCNS(=O)(=O)c1ccc(Cl)cc1	-7.29
O=C(O)c1cccc2[nH]c(C(F)(F)F)nc12	10
FC(F)(F)c1cnc(Sc2nnc(-c3cccs3)n2CC2CCCO2)c(Cl)c1 (stereo not shown)	-26
CC1(C)OC2OC(COC(=O)c3ccccc3)C3OC(C)(C)OC3C2O1 (stereo not shown)	-8.67
CC(NC(=O)c1ccco1)C(=O)N1CCCCC1 (stereo not shown)	-1.46
N#C/C(=C(/O)c1ccc(S(=O)(=O)N(CCCl)CCCl)cc1)c1nc2ccccc2[nH]1	8.37
CCOc1ccc(/C=N/NC(=O)C(C)N(c2ccc(OC)cc2)S(C)(=O)=O)cc1OCC (stereo not shown)	-1.21

Compound	hERG current change (%, negative = inhibition) at 10uM [%]
O=C(Nc1ccc(Cl)cc1)N1CCC(c2nc(-c3ccccc3Cl)no2)CC1	-1.23
CCN(Cc1ccccc1)C(=O)C1CCN(Cc2ccc(OC)c(OC)c2OC)CC1.O=C(O)C(=O)O	-43.4
O=C(CCCN1C(=O)c2ccccc2C1=O)NCc1ccco1	6.15
Cc1[nH]c2ccccc2c1/C=C(\C#N)S(=O)(=O)c1ccccc1	5.82
CC1CCCCC1NC(=O)/C(C#N)=C/c1ccc(F)c(F)c1 (stereo not shown)	-9.66
COCCNC(=O)c1cc2nc(-c3ccccc3)cc(C)n2n1	7.82
O=C(CSc1nc2ccccc2s1)c1cc2ccccc2o1	-6.39
COc1ccc(/C=C2\SC(=O)N(CCNC(=O)CN3C(=O)NC4(CCCC4)C3=O)C2=O)cc1	-7.84
CC1CN(C(=S)Nc2ccc(Br)cc2Cl)CC(C)O1 (stereo not shown)	-14
c1ccc2c(N3CCCCC3)nc(N3CCCC3)nc2c1	-69.6
COc1ccc(C(=O)NCC(=O)N=Nc2c(O)n(Cc3ccccc3)c3ccccc23)cc1OC	-23.7
Cc1ccc2nc(SCC(=O)N(CC(C)C)c3c(N)n(CC(C)C)c(=O)[nH]c3=O)[nH]c2c1	4.17
CC(Sc1nc2ccccc2[nH]1)C(=O)Nc1ccccc1F (stereo not shown)	10
COc1ccc(C(=O)Nc2ccc(C(=O)Nc3cccc(C)c3)cc2)cc1	21.9
Cc1noc(COc2ccccc2OCC(N)=O)c1Cl	2.16
CC(NC(=O)c1cc(-c2cccnc2)nc2ccc(Br)cc12)C1CCCO1 (stereo not shown)	-12.2
CN(CCC#N)C(=O)COC(=O)c1ccc2c(c1)C(=O)N(C1CCCCC1)C2=O	12.3
CC1CC(C)CN(CCCNC(=O)C2CCCN(c3ncnc4c3nc3n4CCCCC3)C2)C1 (stereo not shown)	-14.1
Cc1c(NC(=S)N/N=C/c2cccc(O)c2)c(=O)n(-c2ccccc2)n1C	0.161
Cc1cc(C)c2oc(=O)cc(CN3CCN(Cc4ccccc4)CC3)c2c1	-33.2
COc1cccc(C(=O)N/N=C/c2ccc(OC)c(COc3ccccc3C(N)=O)c2)c1	-2.25
